# According to patent publication US10858425B2, “Pan-ELR+ CXC chemokine antibodies” (Eli Lilly and Company, priority 2013, dated 2020):
# T1: human CXCL8 (77 amino acid form) (Homo sapiens, UniProt P10145)
# T1 construct: Both the 72 amino acid and 77 amino acid forms of CXCL8 were used
# T1 sequence (P10145 23-99 limits assumed): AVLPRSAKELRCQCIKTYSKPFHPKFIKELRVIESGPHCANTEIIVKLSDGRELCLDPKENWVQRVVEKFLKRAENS
# T2: human CXCL8 (Homo sapiens, UniProt P10145)
# T2 sequence (P10145 28-99 limits assumed): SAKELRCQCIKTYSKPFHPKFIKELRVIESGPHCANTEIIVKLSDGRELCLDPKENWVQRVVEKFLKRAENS
# Tests used:
# [1] = target: T1, human CXCL8 (77 amino acid form); assay: FLIPR neutralization using HMEC cells expressing human CXCR2, CXCL8 (77); assay type: cell-based; settings: CXCL8 (77) 10 nM; HMEC-huCXCR2 FLIPR
# Description: Since all of the ELR+ CXC chemokines can bind CXCR2 receptor, cells expressing CXCR2 were selected for in vitro studies. HMEC-huCXCR2 is an immortalized human endothelial cell line transduced with retrovirus for expression of human CXCR2 receptor. HMEC cells expressing human CXCR2 are able to induce intracellular Ca^2+ influx in response to human, cynomolgus monkey, rat, and mouse ELR+CXC chemokines. Intracellular Ca^2+ influx can be detected by a Fluorescent Imagine £late Reader (FLIPR). Chemokine neutralization should therefore also neutralize intracellular Ca^2+ influx induced by these chemokines.
# HMEC-huCXCR2 is maintained in MCDB 31 medium supplemented with 10% fetal bovine serum, 2× GlutaMax, 1× non-essential amino acids, 1 μg/mL hydrocortisone, 10 ng/mL human Epidermal Growth Factor, and 0.4 μg/mL puromycin at 37° C. in 5% CO2. […] A cell plate and a ligand-antibody plate are loaded into a Fluorescent Imagine Plate Reader (FLIPR-3, Molecular Devices) programmed to transfer 50 μL of ligand-antibody to wells of the cell plate. Fluorescence is recorded every second for 90 seconds. The change in fluorescence (DRFU) is calculated from images 10 to 90. DRFU versus log (antibody concentration) is plotted and IC50 values are determined by nonlinear regression using Graph Pad Prism. […] Data are expressed as the mean of replicates. […]
# human CXCL8 = target: T2, human CXCL8; assay: Western blot analysis of human CXCL8 under reducing and non-reducing conditions; assay type: binding; settings: antibody 1 μg/mL
# Experimental: To determine if Antibody 1 is able to bind a linear or conformational epitope, Western blot analysis is performed using reducing and non-reducing conditions. Electrophoresis of the proteins is performed using pre-cast NuPAGE® 4-12% Bis-Tris gels. NuPAGE® MES SDS running buffer is added to both the inner (200 mL) and outer (at least 600 mL) chambers of the mini-cells. Serial dilutions of human CXCL8 (400 ng, 100 ng, or 25 ng per lane) are made in NuPAGE® LDS 4× Sample Buffer with or without NuPAGE® IOX Sample Reducing Agent. Samples are heated at 95° C. for 2 minutes. Load volumes are 10 μL per lane for the samples, and 5 μL per lane for the SeeBlue Plus2 Prestained Standard marker. The gels are run at 200V for 35 minutes at room temperature.
# Proteins are transferred to PVDF using the iBlot® Dry Blotting System with iBlot®® Transfer Stack, Nitrocellulose, Mini. The membrane is blocked in blocking solution (3% nonfat milk in phosphate buffered saline) for 1 hour at room temperature. Antibody 1 is added to the blocking solution to a final concentration of 1 μg/mL and then is incubated for 2 hours at room temperature. Following primary incubation, the antibody/block solution is removed, and the membrane is washed 3 times for 15 minutes in wash buffer (phosphate buffered saline+0.05% Tween 20). […]
molecule,measurement,setting,value
"Antibody 1: antibody with heavy chain SEQ ID NO: 1 and light chain SEQ ID NO: 3, expressed in NSO cells (antibody) heavy: QVQLVQSGAEVKKPGASVKVSCKASGYEFTSYWIHWVRQAPGQGLEWMGNISPNSGSANYNEKFKSRVTMTRDTSTSTVYMELSSLRSEDTAVYYCAREGPYSYYPSREYYGSDLWGQGTLVTVSSASTKGPSVFPLAPCSRSTSESTAALGCLVKDYFPEPVTVSWNSGALTSGVHTFPAVLQSSGLYSLSSVVTVPSSSLGTKTYTCNVDHKPSNTKVDKRV[human IgG4 Fc with S228P (EU numbers) not spelt out] light: EIVLTQSPATLSLSPGERATLSCRASQSISNNLHWYQQKPGQAPRLLIYYTSRSVSGIPARFSGSGSGTDFTLTISSLEPEDFAVYYCGQNNEWPEVFGGGTKVEIKRTVAAPSVFIFPPSDEQLKSGTASVVCLLNNFYPREAKVQWKVDNALQSGNSQESVTEQDSKDSTYSLSSTLTLSKADYEKHKVYACEVTHQGLSSPVTKSFNRGEC",IC50,[1],0.358 (±0.078) ug/mL
same,"binding to non-reduced, denatured human CXCL8",human CXCL8; non-reducing conditions,able to bind
same,"binding to reduced, denatured human CXCL8",human CXCL8; reducing conditions,unable to bind
